Reference: paper PMC4824069
Where two headings read alike, the source gives them in different places. These are yes or no findings as the source states them, for the method shown. For some assays here: Binding seen in cells or lysates may run through a third protein. For some assays here: Sequences can lack the tags named with a protein. Some entries that bind do so weakly or less than the wild type.

The chains behind the UniProt entries cited, without tags or fusion partners.
UniProt P68400: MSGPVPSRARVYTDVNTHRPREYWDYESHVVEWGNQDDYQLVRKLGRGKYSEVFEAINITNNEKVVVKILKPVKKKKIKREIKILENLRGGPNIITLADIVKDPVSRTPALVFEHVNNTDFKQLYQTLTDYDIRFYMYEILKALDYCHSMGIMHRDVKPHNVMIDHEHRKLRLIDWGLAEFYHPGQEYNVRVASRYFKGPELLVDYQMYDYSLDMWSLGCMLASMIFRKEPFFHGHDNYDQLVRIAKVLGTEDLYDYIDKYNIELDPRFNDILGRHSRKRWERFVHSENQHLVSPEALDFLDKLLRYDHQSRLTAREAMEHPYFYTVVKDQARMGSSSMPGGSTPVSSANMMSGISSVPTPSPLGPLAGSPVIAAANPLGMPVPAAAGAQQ
UniProt P67870: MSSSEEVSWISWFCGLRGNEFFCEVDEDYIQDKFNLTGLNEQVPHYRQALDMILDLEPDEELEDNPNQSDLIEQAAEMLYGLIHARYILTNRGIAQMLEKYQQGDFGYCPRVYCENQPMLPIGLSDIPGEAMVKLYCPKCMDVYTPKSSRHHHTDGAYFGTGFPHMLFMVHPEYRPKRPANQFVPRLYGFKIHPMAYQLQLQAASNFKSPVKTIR

Key:
HA-tagged HEY1 [1] = molecular target: T1, HA-tagged HEY1 (UniProt Q9Y5J3); assay: co-IP; HEK293T (results: HEK293) transiently co-transfected with Flag- and HA-tagged proteins; 500 μg extract on Flag M2 or HA matrix 2 h at 4°C; 20 mM Tris-HCl pH 7.4, 150 nM NaCl (so in the source), 1 mM EDTA, 1% Triton; Western blot
T1 sequence: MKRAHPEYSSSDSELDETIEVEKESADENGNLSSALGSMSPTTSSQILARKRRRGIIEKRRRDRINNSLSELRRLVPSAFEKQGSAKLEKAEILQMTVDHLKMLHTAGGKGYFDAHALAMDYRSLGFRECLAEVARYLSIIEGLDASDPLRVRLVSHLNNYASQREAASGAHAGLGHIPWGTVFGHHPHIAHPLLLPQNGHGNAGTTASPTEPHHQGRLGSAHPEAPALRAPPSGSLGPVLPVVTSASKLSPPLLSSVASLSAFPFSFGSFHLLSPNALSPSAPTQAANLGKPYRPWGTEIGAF

GST-CK2α fusion protein = GST-CK2α fusion protein (UniProt P68400); assay: pull-down; GST-CK2α/α’/β coupled to Glutathione-Sepharose, incubated with Flag-DPF3a/b recombinant proteins 2 h at 4°C; 4.2 mM Na2HPO4, 2 mM KH2PO4, 250 mM NaCl, 10 mM KCl, 0.1% NP40, 0.5% BSA, pH 7.2; Western blot; both purified
GST-CK2β fusion protein = GST-CK2β fusion protein (UniProt P67870); assay: as above
GST-CK2α’ fusion protein = GST-CK2α’ fusion protein (UniProt P19784); assay: as above
HA-tagged HEY1 [2] = molecular target: T1, HA-tagged HEY1; assay: co-IP; HEK293T (results: HEK293) transiently co-transfected with Flag- and HA-tagged proteins; 500 μg extract on Flag M2 or HA matrix 2 h at 4°C; 20 mM Tris-HCl pH 7.4, 150 nM NaCl (so in the source), 1 mM EDTA, 1% Triton; Western blot; remark: listed apart in the source

Flag-tagged BAF60c (from UniProt Q6STE5 1-483)
binding (HA-tagged HEY1 [1]): no binding

Flag-DPF3b recombinant protein (GST pull-down) (from UniProt Q92784-1 1-378)
binding (GST-CK2α fusion protein): no binding | binding (GST-CK2β fusion protein): no binding | binding (GST-CK2α’ fusion protein): no binding

B1: Flag-DPF3a recombinant protein (GST pull-down) (protein, UniProt Q92784-2 1-357)
chain: MATVIHNPLKALGDQFYKEAIEHCRSYNSRLCAERSVRLPFLDSQTGVAQNNCYIWMEKRHRGPGLAPGQLYTYPARCWRKKRRLHPPEDPKLRLLEIKPEVELPLKKDGFTSESTTLEALLRGEGVEKKVDAREEESIQEIQRVLENDENVEEGNEEEDLEEDIPKRKNRTRGRARGSAGGRRRHDAASQEDHDKPYVCDICGKRYKNRPGLSYHYAHTHLASEEGDEAQDQETRSPPNHRNENHRPQKGPDGTVIPNNYCDFCLGGSNMNKKSGRPEELVSCADCGRSAHLGGEGRKEKEAAAAARTTEDLFGSTSESDTSTFHGFDEDDLEEPRSCRGRRSGRGSPTADKKGSC
binding (GST-CK2α fusion protein): binds weakly | binding (GST-CK2β fusion protein): binds

B2: Flag-tagged DPF3a aa1–246 (domain or fragment, UniProt Q92784-2 1-246)
chain: MATVIHNPLKALGDQFYKEAIEHCRSYNSRLCAERSVRLPFLDSQTGVAQNNCYIWMEKRHRGPGLAPGQLYTYPARCWRKKRRLHPPEDPKLRLLEIKPEVELPLKKDGFTSESTTLEALLRGEGVEKKVDAREEESIQEIQRVLENDENVEEGNEEEDLEEDIPKRKNRTRGRARGSAGGRRRHDAASQEDHDKPYVCDICGKRYKNRPGLSYHYAHTHLASEEGDEAQDQETRSPPNHRNENH
binding (HA-tagged HEY1 [2]): no binding

B3: Flag-tagged DPF3a aa292–357 (domain or fragment, UniProt Q92784-2 292-357)
chain: HLGGEGRKEKEAAAAARTTEDLFGSTSESDTSTFHGFDEDDLEEPRSCRGRRSGRGSPTADKKGSC
binding (HA-tagged HEY1 [2]): no binding
